{
  "source": "PubChem BioAssay AID493208",
  "about": "(National Center for Advancing Translational Sciences (NCATS), 2011)",
  "note": "The campaign covered roughly 44,000 compounds. About 340 (0.77%) were called active. Roughly 5% stayed inconclusive and do not appear here. Calls come from the whole dose curve; as a rule, active = well fitted inhibition curve with a large enough effect; inconclusive = small, poorly fitted or top-dose-only effect; inactive = flat fitted curve, though single readings scatter. This is one part of the list.",
  "data": [
    {"experiment": "Acumen qHTS Assay for Inhibitors of the mTORC1 Signaling Pathway in MEF (Tsc2-/-, p53-/-) Cells: Sytravon;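 note: plate controls were DMSO for no effect and rapamycin for full effect; nearly all actives have a fitted effect of over 50% in size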", "conditions": "phospho-rpS6 immunofluorescence/PI, 24 h; series mostly up to 38.3 µM; activity change, negative = inhibition: at the top concentration", "from_the_text": "NIH Molecular Libraries Probe Production Centers Network [MLPCN] NIH Chemical Genomics Center [NCGC] MLPCN Grant: NS059428-01 Assay Submitter (PI): Blenis, John; Hoffman, Greg; Harvard University NCGC Assay Overview: The mammalian target of rapamycin (mTOR) is an intracellular serine/threonine kinase Aberrant regulation of mTOR signaling plays a causative role in a number of human diseases, including cancer, benign tumors such as lymphangioleiomyomatosis (LAM) and Tuberous Sclerosis Complex (TSC), and metabolic diseases such as diabetes and obesity. This project aims to identify inhibitors of ribosomal protein S6 (rpS6) phosphorylation. The phosphorylation of rpS6 is a key event downstream of mTOR activation. The assay uses a phospho-specific antibody of phospho-rpS6 to detect inhibitors of mTOR activation. Mutations in the Tsc1 and Tsc2 genes are the underlying genetic lesions responsible for TSC, causing constitutive activation of the mTORC1 pathway and leading to profound effects on cell metabolism. Aberrant metabolism in cancer has recently received significant attention as a target to develop therapeutic agents in the treatment of cancer.1 As Tsc2-/- cells have lost the ability to respond to energy and growth factor deprivation, these cells are unable to properly down regulate cellular biosynthetic processes in response to metabolic stress, and are thus extremely sensitive to glucose deprivation-induced death.2 A central goal of this project is to explore the unique cell survival and metabolic properties of cells with Tsc1 or Tsc2 by screening for compounds that selectively target the Tsc2-/- MEFs by screening both Tsc2-/- and WT MEF cell lines. We hope to better understand these aspects of TSC physiology in order to exploit them for therapeutic benefit.\nNCGC Acumen Assay Protocol Summary: For quantitative high throughput analysis of mTORC1 signaling, we developed a cell-based assay for immuno-fluorescence based detection of rpS6 phosphorylation on the Acumen Explorer that will be used a platform for the primary small molecule screen. Mouse embryonic fibroblasts (MEFs) are cultured in 1536-well plates using DMEM + 10% FBS. Twenty-four hrs after plating, test compounds (solubilized in DMSO) are delivered and incubated with the cells for 24 hrs at 37 degree Celsius. Following the incubation, media with compound is aspirated and the cells are fixed in 4% paraformaldehyde (PFA) containing PBS + 0.2% TX-100. Next, PFA is aspirated, cells are washed two times with PBS plus 0.2% TX-100 and the cells are blocked for 1 hr at room temperature (blocking buffer: LiCOR Blocking Buffer plus 0.2% TX-100). […] Cells are washed two times with PBS plus 0.2% TX-100, and stained with 10 uM propidium iodide (PI) for 20-25 minutes for cell number measurement (1:500 dilution of Hoescht staining is also added for IN Cell imaging). The plates are scanned on the Acumen Explorer laser scanning instrument (TTP Labtech) using the 488nm laser for simultaneous excitation of the Alexa-488 and PI. […] The normalized phospho-S6 staining is calculated as the ratio of the integrated Alexa 488 intensity divided by the integrated PI intensity for the single concentration rapamycin control (7.5 nM) and DMSO columns. […] Inhibition of the pathway is defined based on the normalized phospho-S6 intensity in rapamycin treated cells. Active cells are defined as those with a normalized phospho-S6 staining above this threshold, and each treatment is reported as the % positive cells in the well, where thresholds are defined by selecting wells with the highest and lowest signal and differentiating between the % non-active and % active populations. In addition to the pathway specific phospho-S6 endpoint, the number of PI stained cells from the Acumen is recorded as a measure of cell viability. The primary screen was performed with a MEF cell line in a defined genetic background, Tsc2-/-, p53-/- cell line stably transfected with an empty vector control (Tsc2-/- MEF).", "values": [
      {"smiles": "COc1ccc(OC)c(NC(=O)C2=C(C)C(=O)OC23CCN(C(C)C)CC3)c1", "activity change, negative = inhibition": "inactive: -13.6%"},
      {"smiles": "O=C(CSc1nc2c(oc3ccccc32)c(=O)n1-c1ccccc1)Nc1ccc(F)c(Cl)c1", "activity change, negative = inhibition": "inactive: 0.768%"},
      {"smiles": "CCOC(=O)c1c(NC(C)=O)c2c3c(sc2n1Cc1cc(C)ccc1C)CCCC3", "activity change, negative = inhibition": "inactive: 2.36%"},
      {"smiles": "CCOc1ccccc1NC(=O)Cn1c(=O)n(Cc2ccco2)c(=O)c2sc3ccccc3c21", "activity change, negative = inhibition": "inactive: 0.44%"},
      {"smiles": "COc1ccccc1NS(=O)(=O)c1cn(C)c(C)n1", "activity change, negative = inhibition": "inactive: 4.14%"},
      {"smiles": "COc1ccc(N2CC(NC(=O)COc3cccc(C)c3)CC2=O)cc1OC", "note": "(centres undefined)", "activity change, negative = inhibition": "inactive: -0.584%"},
      {"smiles": "Cc1ccc(C)c(N2CCN(C(=O)Cn3nc(C)c4sc5ccccc5c4c3=O)CC2)c1", "activity change, negative = inhibition": "inactive: -8.96%"},
      {"smiles": "COc1ccccc1N(CC(=O)Nc1ccccc1C(F)(F)F)S(=O)(=O)c1ccc(C)cc1", "activity change, negative = inhibition": "inactive: 2.17%"},
      {"smiles": "CCC(O)c1nc2ccccc2n1Cc1cc(C)ccc1C", "note": "(centres undefined)", "activity change, negative = inhibition": "inactive: 0.766%"},
      {"smiles": "CCOc1ccc(NC(=O)CSc2nc3ccsc3c(=O)n2CCC(C)C)cc1", "activity change, negative = inhibition": "inactive: -7.71%"},
      {"smiles": "COc1ccc(OC)c(NC(=O)C2CCN(S(=O)(=O)c3ccc4c(c3)CC(C)N4C(C)=O)CC2)c1", "note": "(centres undefined)", "activity change, negative = inhibition": "inactive: 0.353%"},
      {"smiles": "Cc1ccc(NC(=O)C2CCN(S(=O)(=O)c3ccc4c(c3)CCCC(=O)N4)CC2)cc1N(C)C", "activity change, negative = inhibition": "inactive: -8.51%"},
      {"smiles": "COc1ccc(OC)c(NC(=O)C(C)n2c(=O)c(-c3ccccc3NC(C)=O)nc3ccccc32)c1", "note": "(centres undefined)", "activity change, negative = inhibition": "inactive: -3.3%"},
      {"smiles": "O=C(CC1Sc2ccccc2NC1=O)Nc1cccc(C(F)(F)F)c1", "note": "(centres undefined)", "activity change, negative = inhibition": "inactive: -2.22%"},
      {"smiles": "COc1ccc(-c2nc(CSCC(=O)NCCC(C)C)c(C)o2)cc1OC", "activity change, negative = inhibition": "inactive: -3.47%"},
      {"smiles": "Cc1cc(Nc2cccc(Cl)c2)nc2ccc(NC(=O)COc3ccc(Cl)cc3)cc12", "activity change, negative = inhibition": "inactive: -22.4%"},
      {"smiles": "CC(C)c1ccc(NC(=O)c2cc3c(=O)[nH]c4ccccc4c3n2C)cc1", "activity change, negative = inhibition": "inactive: -15.9%"},
      {"smiles": "O=C(CSc1cn(CC(=O)N2CCCCC2)c2ccccc12)NCc1ccccc1Cl", "activity change, negative = inhibition": "inactive: -4.6%"},
      {"smiles": "CCN1C(=O)c2ccccc2S(=O)(=O)c2ccc(C(=O)NCc3ccccc3OC)cc21", "activity change, negative = inhibition": "inactive: 0.777%"},
      {"smiles": "O=C(CN1C(=O)c2cccnc2Sc2ccccc21)Nc1cc(F)ccc1F", "activity change, negative = inhibition": "inactive: -5.35%"},
      {"smiles": "Cc1ccc(-n2nc(C)c3c(C(=O)NCCc4ccc(S(N)(=O)=O)cc4)cc(C)nc32)cc1", "activity change, negative = inhibition": "inactive: 3.96%"},
      {"smiles": "CCC1CN(C(=O)N2CCC(C(=O)NCc3cccc(F)c3)CC2)c2cc(C)ccc2O1", "note": "(centres undefined)", "activity change, negative = inhibition": "inactive: 9.45%"},
      {"smiles": "CCCCN(C)CCCNC(=O)c1cn(CC)c2ccc(S(=O)(=O)N3CCc4ccccc4C3)cc2c1=O", "activity change, negative = inhibition": "inactive: -6.17%"},
      {"smiles": "COc1ccc(NC(=O)Nc2cc(C(=O)NCc3ccc(C)cc3)ccc2N2CCCC2)cc1", "activity change, negative = inhibition": "inactive: 3.71%"},
      {"smiles": "COc1ccccc1CNC(=O)c1cc(S(=O)(=O)N2CCCC(C)C2)cn1C", "note": "(centres undefined)", "activity change, negative = inhibition": "inactive: 7.25%"},
      {"smiles": "CCc1ccc(NC(=O)CC2C(=O)N(c3ccc(F)cc3)C(=O)N2Cc2ccc(F)cc2)cc1", "note": "(centres undefined)", "activity change, negative = inhibition": "inactive: -5.5%"},
      {"smiles": "Cc1ccc(-n2nc(C)c3c(C(F)(F)F)cc(-c4cccnc4)nc32)cc1C", "activity change, negative = inhibition": "inactive: 2.3%"},
      {"smiles": "Cc1ccc2oc(-c3ccc(NC(=O)c4oc5ccc(Cl)cc5c4C)cc3)nc2c1", "activity change, negative = inhibition": "inactive: -1.87%"},
      {"smiles": "Cc1cccc(NC(=O)Cn2c(SCC(=O)NCc3ccccc3)nc3ccccc32)c1C", "activity change, negative = inhibition": "inactive: 0%"},
      {"smiles": "O=C(c1cnn(-c2ccc(F)cc2)c1-n1cccc1)N1CCN(c2ccccc2)CC1", "activity change, negative = inhibition": "inactive: 0.202%"},
      {"smiles": "CCOc1ccc(-c2cn3nc(CC(C)C)sc3n2)cc1", "activity change, negative = inhibition": "inactive: 2.04%"},
      {"smiles": "Cc1ccc(NC(=O)c2ccc(C)c(S(=O)(=O)N3CCCCCC3)c2)cc1", "activity change, negative = inhibition": "inactive: 1.14%"},
      {"smiles": "COc1ccc(C)cc1NS(=O)(=O)c1ccc2oc(=O)c3ncn(C)c3c2c1", "activity change, negative = inhibition": "inactive: -2%"},
      {"smiles": "CCN(CC)c1ccc(C2C(C(N)=O)=C(C)Nc3nc(SCc4ccccc4Cl)nn32)cc1", "note": "(centres undefined)", "activity change, negative = inhibition": "inactive: -13.2%"},
      {"smiles": "CCOC(=O)c1ccc(N=C2SC(C(=O)Nc3ccccc3)CC(=O)N2C)cc1", "note": "(centres undefined)", "activity change, negative = inhibition": "inactive: 3.3%"},
      {"smiles": "O=C(NCCSCc1ccccc1)C1CCN(S(=O)(=O)Cc2ccccc2)CC1", "activity change, negative = inhibition": "inactive: 0.256%"},
      {"smiles": "COc1ccc(CNC(=O)C2(c3cccs3)CCOCC2)cc1", "activity change, negative = inhibition": "inactive: 1.14%"},
      {"smiles": "Cc1ccccc1-c1nc(CN2CCC(C(=O)NC(C)C)CC2)c(C)o1", "activity change, negative = inhibition": "inactive: -10%"},
      {"smiles": "CCCCc1nn2c(=O)cc(COC(=O)CNC(=O)COc3ccc(C)cc3)nc2s1", "activity change, negative = inhibition": "inactive: -12.9%"},
      {"smiles": "CCN(CC)S(=O)(=O)c1cccc(C(=O)Nc2ccccc2C(=O)Nc2ccc(OC)cc2)c1", "activity change, negative = inhibition": "inactive: -2.42%"},
      {"smiles": "COc1ccc(N2CCN(CC(O)COc3c(OC)cccc3OC)CC2)cc1", "note": "(centres undefined)", "activity change, negative = inhibition": "inactive: -8.96%"},
      {"smiles": "CCOc1ccc(NC(=O)c2c(NCc3cccs3)sc3c2CCC(C)C3)cc1", "note": "(centres undefined)", "activity change, negative = inhibition": "inactive: -0.431%"},
      {"smiles": "CCC1CN(C(=O)NCc2cccc(OC)c2)c2ccccc2O1", "note": "(centres undefined)", "activity change, negative = inhibition": "inactive: 5.73%"},
      {"smiles": "COc1ccc(CCNC(=O)c2cc3c(=O)n(C)c4cc(Cl)ccc4c3s2)cc1OC", "activity change, negative = inhibition": "inactive: -6.16%"},
      {"smiles": "COc1ccc(-c2[nH]c(-c3ccccc3)nc2SCC(=O)NC2CCCC2)cc1", "activity change, negative = inhibition": "inactive: -9.24%"},
      {"smiles": "CCN1C(=O)c2ccccc2Sc2ccc(NC(=O)Nc3ccc(Br)c(C)c3)cc21", "activity change, negative = inhibition": "inactive: -11.1%"},
      {"smiles": "COc1ccc(Nc2nc(N)nc(CSc3nc4ccccc4s3)n2)cc1", "activity change, negative = inhibition": "inactive: -6.81%"},
      {"smiles": "O=S1(=O)c2ccccc2N(Cc2ccccc2Cl)c2ccccc21", "activity change, negative = inhibition": "inactive: 0.31%"},
      {"smiles": "Cc1ccc(-c2ccc(=O)n(CC(=O)NC(C)c3ccccc3)n2)cc1", "note": "(centres undefined)", "activity change, negative = inhibition": "inactive: 14.5%"}
    ]}
  ]
}
